# Measured values reported in PubChem BioAssay AID2100 (National Center for Advancing Translational Sciences (NCATS), 2009).
# The campaign covered roughly 300,000 compounds. About 1,200 (0.4%) were called active. Inconclusive means that the source gave no clear call. Such entries were picked first, then a sample of the others. Calls come from the whole dose curve; as a rule, active = well fitted inhibition curve with a large enough effect; inconclusive = small, poorly fitted or top-dose-only effect, or another doubt; inactive = no such curve, though single readings can be large or run the other way. A potency beside an inconclusive call is a rough fit, not a confirmed value.
# Target: Lysosomal alpha-glucosidase (Homo sapiens) (UniProt P10253)
# Assay: qHTS Assay for Inhibitors and Activators of Human alpha-Glucosidase Cleavage of Glycogen;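 for activity change, negative = inhibition: 0% = full enzyme reaction and -100% = no-enzyme basal signal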
# Conditions: recombinant GAA, glycogen substrate, Amplex Red glucose oxidase fluorescence; activity change, negative = inhibition: at 76.4 µM (top of the series) unless noted
# In short: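 Recombinant enzyme (4 nM final) with compounds titrated up to 77 uM and bovine liver glycogen (30 ug) in citrate pH 5.0, 0.01% Tween-20, 37 C 40 min. Released glucose detected by Amplex Red/glucose oxidase (Ex 573/Em 610); AC50 from Hill fits.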
# Potency is the fitted concentration of half-maximal effect.
SMILES,"activity change, negative = inhibition",Potency
CCOC(=O)N1CCC(N2Cc3cccc(C(=O)Nc4ccc(OC)c(OC)c4)c3C2=O)CC1,inactive: -9.19%,–
Cc1ccc(C)c(S(=O)(=O)Nc2ccc(O)c3ccccc23)c1,–,"inconclusive: 5.01 µM [inhibitor, full curve, poor fit]"
O=C(Nc1ccccc1O)C(c1ccccc1)c1ccccc1,–,"inconclusive: 39.8 µM [inhibitor, single point]"
Clc1ccc2nc(CN3CCCc4ccccc43)cn2c1,–,"inconclusive: 11.2 µM [inhibitor, partial curve]"
Cc1ccc(C2C3=C(CC(C)(C)CC3=O)N=C3c4ccccc4C(=O)C32)cc1 (configuration not stated),inactive: -21.5%,–
COC(=O)COc1ccc(-c2nnc(Nc3ccc(O)cc3)c3ccccc23)cc1,–,"inconclusive: 15.8 µM [inhibitor, partial curve]"
Cc1ccc(/C=N/Nc2ccc3ccccc3n2)o1,–,"inconclusive: 39.5 µM [inhibitor, single point]"
Cc1ccc2cc(CN(Cc3ccc4c(c3)OCO4)Cc3nnnn3Cc3ccco3)c(=O)[nH]c2c1,–,"inconclusive: 8.91 µM [inhibitor, single point]"
Cc1cc(N/N=C/c2ccc(O)cc2O)nc(N2CCOCC2)n1,–,active: 15.7 µM
CC(C)N1CC=C2C(C#N)=C(N)C(C#N)(C#N)[C@H](c3ccoc3)[C@H]2C1,–,"inconclusive: 35.5 µM [activator, single point]"
CN(NC(=O)NN)c1ncc(C(F)(F)F)cc1Cl,–,"inconclusive: 19.8 µM [inhibitor, partial curve]"
CN(Cc1ccccc1)S(=O)(=O)c1cccc2cccnc12,inactive: 6.44%,–
COc1ccc(C(=O)N[C@H](C(=O)N2CCN(c3ccccc3F)CC2)C(C)C)cc1,inconclusive: 31.6% [activator],–
CCn1ncc(N(C)N)c(Cl)c1=O,–,"inconclusive: 14.1 µM [inhibitor, partial curve]"
O=C(NNc1cc(Cl)cc(Cl)c1)c1cccs1,–,"inconclusive: 25.1 µM [inhibitor, partial curve]"
COc1cc(OC)cc(C(=O)NC(=S)N2CCCCC2c2cccnc2)c1 (configuration not stated),–,"inconclusive: 39.8 µM [inhibitor, partial curve]"
Nc1c(N2CCCCC2)c(=O)[nH]c(=O)n1-c1ccccc1,–,"inconclusive: 14.1 µM [inhibitor, partial curve]"
COc1cc(OC)cc(C(=O)NNC(=S)Nc2ccc(S(N)(=O)=O)cc2)c1,–,"inconclusive: 39.8 µM [inhibitor, partial curve]"
CCc1cccc(C)c1NC(=O)CSc1nc2c(c(=O)[nH]1)CCC2,–,"inconclusive: 7.08 µM [inhibitor, single point]"
CC(=O)C1=C(S(=O)(=O)c2ccc(C)cc2)CS(=O)(=O)C1,–,"inconclusive: 17.8 µM [inhibitor, partial curve]"
COc1ccccc1/C=C1/C(=O)ON=C1C,inactive: -0.113%,–
COc1cc(/C=N/NC(=S)NCCN2CCOCC2)cc(OC)c1O,–,"inconclusive: 10 µM [inhibitor, partial curve]"
C/C=C/c1cc(CN2CCN(c3ccccc3)CC2)c(O)c(OC)c1,–,"inconclusive: 8.84 µM [inhibitor, full curve]"

SMILES,"activity change, negative = inhibition",Potency
Cn1cccc1/C=N/n1c(-c2ccc(Cl)cc2Cl)n[nH]c1=S,–,"inconclusive: 39.5 µM [inhibitor, single point]"
NS(=O)(=O)c1ccc(N/N=C/c2ccccc2Br)cc1,–,"inconclusive: 28.2 µM [inhibitor, single point]"
CCn1cc(S(=O)(=O)c2ccc(C)cc2)[nH]c1=O,inactive: -14.7%,–
O=C(Nc1cccs1)Nc1ccccc1Br,–,"inconclusive: 17.8 µM [inhibitor, partial curve]"
CCOC(=O)Cc1csc(NC(=O)NC2(C(F)(F)F)Oc3ccccc3O2)n1,–,active: 17.6 µM
CCC1=NC(c2ccccc2Cl)N(O)C1(C)C (configuration not stated),–,"inconclusive: 28.2 µM [inhibitor, single point]"
Cc1ccnc(Nc2nc(-c3ccc(O)c(O)c3)cs2)c1,–,active: 6.31 µM
COc1cc(O)cc2cc3c(c(O)c12)C(=O)CC(C)(O)O3 (configuration not stated),inactive: -29.9%,–
CCOc1ccccc1/C=N/Nc1nc2c(N)ncnc2n1[C@H]1O[C@@H](CO)[C@H](O)[C@@H]1O,–,"inconclusive: 12.6 µM [inhibitor, partial curve]"
Cc1[nH]c2ccccc2c1NC(=O)CN1CCN(c2cccc(C(F)(F)F)c2)CC1,inactive: -12.3%,–
COc1ccc(C)cc1N1C(=N)/C(=C2/Nc3ccccc3S2)C(c2ccccc2)C1=O (configuration not stated),–,"inconclusive: 35.5 µM [activator, single point]"
COc1ccc(CN2CSC(=S)N(Cc3ccc(OC)cc3)C2)cc1,–,"inconclusive: 39.8 µM [inhibitor, partial curve, poor fit]"
COC(=O)C1=C(C)Nc2c(c(=O)n(C)c(=O)n2C)C1c1ccncc1 (configuration not stated),–,"inconclusive: 11.2 µM [inhibitor, partial curve]"
Cc1cc(-c2ccccc2)c2c(=O)n(-c3ccccc3)[nH]c2n1,–,"inconclusive: 14.1 µM [inhibitor, partial curve]"
CCOC(=O)SC1=N/C(=C\c2ccc(N(C)C)cc2)C(=O)S1,–,"inconclusive: 28.2 µM [inhibitor, single point]"
O=C(NCc1ccco1)Nc1cccs1,–,"inconclusive: 14 µM [inhibitor, partial curve]"
O=C1N2CCCc3cccc(c32)C12Nc1ccccc1S2 (configuration not stated),–,"inconclusive: 28.2 µM [inhibitor, single point]"
CC(C)N1CCC(=NNc2ccc([N+](=O)[O-])cc2S(=O)(=O)N2CCOCC2)CC1,–,"inconclusive: 28.2 µM [activator, partial curve]"
Oc1ccc2nc(Cc3ccccc3)[nH]c2c1,–,"inconclusive: 31.6 µM [inhibitor, single point]"
Cc1cc(C)c(NC(=O)c2oc3c(c2C)-c2[nH]ncc2CC3)c(C)c1,–,"inconclusive: 7.08 µM [inhibitor, partial curve]"
CN(C)C=NC1=NN(c2cccc(C(F)(F)F)c2)CC1,–,"inconclusive: 28.2 µM [inhibitor, single point]"
Cc1ccc(Nc2nc(-c3ccc(O)cc3O)cs2)nc1,–,"inconclusive: 31.6 µM [inhibitor, partial curve]"
CN(C)c1cccc2c1c(NS(=O)(=O)c1cn(C)cn1)nn2C,–,"inconclusive: 2.51 µM [inhibitor, partial curve]"

SMILES,"activity change, negative = inhibition",Potency
O=C(NNS(=O)(=O)c1ccc(Cl)cc1Cl)c1cc2ncc(C(F)(F)F)cc2s1,–,"inconclusive: 17.8 µM [inhibitor, partial curve]"
CCOc1ccc(NC(=O)c2cnccn2)cc1,inactive: 7.73%,–
CCn1c(C)nc2cc(C(=O)N/N=C/c3ccc(O)c(O)c3O)ccc21,–,"inconclusive: 11.2 µM [inhibitor, partial curve]"
CCOC(=O)C1=C(CS(=O)(=O)c2ccc(F)cc2)NC(=O)NC1c1cc(OC)c(O)c(OC)c1 (configuration not stated),–,"inconclusive: 11.2 µM [inhibitor, single point]"
COc1cc(/C=N/NC(=O)CCn2c3ccccc3c3ccccc32)ccc1O,–,"inconclusive: 35.5 µM [inhibitor, partial curve]"
Cc1cccc(C)c1N1CCN(c2n[nH]c(N)n2)CC1,–,"inconclusive: 8.91 µM [inhibitor, partial curve]"
COc1cc(C2Nc3ccccc3NC3=C2C(=O)CC(c2ccc(OC)c(OC)c2)C3)ccc1O (configuration not stated),–,"inconclusive: 39.5 µM [inhibitor, single point]"
Oc1ccc(/C=N/N(Cc2ccccc2)c2ccccc2)cc1,–,"inconclusive: 3.14 µM [inhibitor, single point]"
COc1ccc(/C(C)=N/Nc2nc3ccccc3nc2C)cc1OC,–,"inconclusive: 25.1 µM [inhibitor, partial curve]"
CC(C(=O)Nc1cc([N+](=O)[O-])ccc1Cl)N1CCN(c2ccccc2O)CC1 (configuration not stated),–,"inconclusive: 17.8 µM [inhibitor, partial curve]"
COc1cc(N)c(Cc2nccc3cc(OC)c(OC)cc23)cc1OC,–,"inconclusive: 14.1 µM [inhibitor, partial curve]"
CC([NH2+][O-])C(C)(C)NO (configuration not stated),–,"inconclusive: 3.52 µM [inhibitor, full curve]"
COc1ccc(/C=C/c2cc(C(F)(F)F)[nH]c(=O)n2)cc1OC,inactive: 8.31%,–
CCCOc1ccc(CC(=O)NNC(=S)Nc2ccccc2)cc1Br,–,"inconclusive: 39.5 µM [inhibitor, single point]"
CCN1CCCc2cc(CN(CCN3CCOCC3)C(=S)Nc3ccc(OC)c(Cl)c3)ccc21,–,"inconclusive: 5.58 µM [inhibitor, full curve, poor fit]"
CC(C)C(=O)Nc1nc2c(s1)CC(C(C)(C)C)CC2 (configuration not stated),inactive: 14.5% [at 76.3 µM],–
Nc1ccc(NC(=O)NC2CCCCC2)cc1,–,active: 17.8 µM
O=C1OCC(CO)(CO)N=C1NNc1ccccc1[N+](=O)[O-],–,"inconclusive: 3.98 µM [inhibitor, full curve]"
COc1cc(C(c2c(C)[nH][nH]c2=O)c2c(C)[nH][nH]c2=O)ccc1OC(=O)c1cccc([N+](=O)[O-])c1,–,"inconclusive: 17.6 µM [inhibitor, partial curve]"
CCCCNC(=S)Nc1ccc(Oc2ccccc2)cc1,–,"inconclusive: 50.1 µM [inhibitor, single point]"
CCOCCCNC(=O)C(c1ccccc1)N1Cc2ccccc2C1=O (configuration not stated),–,"inconclusive: 50.1 µM [inhibitor, single point]"
